Laboratory results from paper PMC10043283, “Neuraminidase 1 promotes renal fibrosis development in male mice” (Nature Communications, 2023).
No constants are given. Whether binding was seen depends on the method and setting. Binding seen in cells or lysates may run through a third protein. Some entries that bind do so weakly or less than the wild type.

Amino acid sequences for entries named in this document (tags omitted). Residues count along the entry.
UniProt P37173, residues 23-567: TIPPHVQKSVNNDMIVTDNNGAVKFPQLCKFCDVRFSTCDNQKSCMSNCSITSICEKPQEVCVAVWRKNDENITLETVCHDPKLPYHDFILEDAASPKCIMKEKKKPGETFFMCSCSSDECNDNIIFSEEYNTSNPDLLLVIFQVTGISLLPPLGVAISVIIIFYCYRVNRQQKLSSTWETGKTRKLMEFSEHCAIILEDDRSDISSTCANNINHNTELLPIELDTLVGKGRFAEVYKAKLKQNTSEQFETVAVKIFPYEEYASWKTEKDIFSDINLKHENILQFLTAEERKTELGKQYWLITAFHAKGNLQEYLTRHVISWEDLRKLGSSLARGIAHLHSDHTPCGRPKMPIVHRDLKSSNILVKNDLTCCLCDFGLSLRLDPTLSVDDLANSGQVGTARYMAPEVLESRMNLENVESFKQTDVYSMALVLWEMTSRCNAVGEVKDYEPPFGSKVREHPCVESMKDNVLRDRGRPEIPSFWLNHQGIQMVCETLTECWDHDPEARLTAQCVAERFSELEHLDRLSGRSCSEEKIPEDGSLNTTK
UniProt P36894, residues 24-532: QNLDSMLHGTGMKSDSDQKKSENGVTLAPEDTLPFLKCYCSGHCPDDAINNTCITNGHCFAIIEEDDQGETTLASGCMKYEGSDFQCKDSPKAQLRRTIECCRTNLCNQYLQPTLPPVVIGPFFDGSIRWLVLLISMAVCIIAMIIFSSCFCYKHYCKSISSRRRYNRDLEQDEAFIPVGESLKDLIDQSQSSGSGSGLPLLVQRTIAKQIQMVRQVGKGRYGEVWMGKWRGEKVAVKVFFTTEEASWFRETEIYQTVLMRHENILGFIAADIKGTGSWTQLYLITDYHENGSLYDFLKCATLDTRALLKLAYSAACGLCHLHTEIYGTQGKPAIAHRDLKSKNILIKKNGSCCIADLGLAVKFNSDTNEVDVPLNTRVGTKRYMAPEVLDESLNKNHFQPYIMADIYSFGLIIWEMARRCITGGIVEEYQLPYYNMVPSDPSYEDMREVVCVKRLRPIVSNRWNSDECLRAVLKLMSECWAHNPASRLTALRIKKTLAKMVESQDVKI
UniProt Q13705, residues 19-512: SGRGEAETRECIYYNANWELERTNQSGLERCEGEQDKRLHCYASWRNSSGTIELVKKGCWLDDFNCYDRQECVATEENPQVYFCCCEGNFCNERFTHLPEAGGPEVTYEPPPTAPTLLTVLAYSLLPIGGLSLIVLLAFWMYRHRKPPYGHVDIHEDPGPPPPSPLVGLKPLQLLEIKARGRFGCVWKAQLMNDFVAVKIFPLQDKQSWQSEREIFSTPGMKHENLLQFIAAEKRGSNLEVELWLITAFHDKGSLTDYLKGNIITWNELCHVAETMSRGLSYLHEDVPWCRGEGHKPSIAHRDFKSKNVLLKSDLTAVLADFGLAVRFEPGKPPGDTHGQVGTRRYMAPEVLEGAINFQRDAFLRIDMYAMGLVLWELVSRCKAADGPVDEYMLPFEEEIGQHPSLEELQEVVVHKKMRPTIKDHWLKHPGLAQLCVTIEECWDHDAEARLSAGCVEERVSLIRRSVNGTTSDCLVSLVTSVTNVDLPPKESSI
UniProt O00238, residues 14-502: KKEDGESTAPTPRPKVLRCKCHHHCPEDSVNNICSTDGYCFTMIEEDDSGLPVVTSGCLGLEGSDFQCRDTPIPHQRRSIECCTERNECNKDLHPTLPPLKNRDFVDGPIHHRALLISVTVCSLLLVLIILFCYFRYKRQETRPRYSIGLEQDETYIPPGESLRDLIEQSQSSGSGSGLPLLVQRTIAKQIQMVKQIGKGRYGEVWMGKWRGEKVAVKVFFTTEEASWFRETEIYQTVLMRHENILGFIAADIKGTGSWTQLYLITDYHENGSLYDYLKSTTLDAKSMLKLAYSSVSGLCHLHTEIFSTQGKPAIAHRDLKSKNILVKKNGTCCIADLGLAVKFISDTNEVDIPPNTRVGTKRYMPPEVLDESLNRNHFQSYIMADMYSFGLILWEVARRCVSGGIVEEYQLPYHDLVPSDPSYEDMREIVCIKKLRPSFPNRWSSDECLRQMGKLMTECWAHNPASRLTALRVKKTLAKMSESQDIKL

The substances below were run against HA-NEU1 (neuraminidase 1) (UniProt Q99519) (assay: co-IP; HEK293T cells transfected with HA-NEU1 and Flag-tagged receptor plasmids; lysis in 25 mM Tris-HCl pH 7.4, 150 mM NaCl, 1% NP-40, 1 mM EDTA, 5% glycerol; Flag-tag or HA-tag antibody on Protein A/G magnetic beads; western blot).

binding	Substance
no binding	Flag-TGFBR2 (from UniProt P37173 23-567) (receptor)
binds	Flag-ALK1 (from UniProt P37023 22-503) (receptor)
no binding	Flag-ALK3 (from UniProt P36894 24-532) (receptor)
binds	Flag-ACVR2B (from UniProt Q13705 19-512) (receptor)
no binding	Flag-ALK6 (from UniProt O00238 14-502) (receptor)
